In the supplement of paper PMC12217912:
Some of the results follow. The full chains were built here from the parent and the listed change. Values near 0.05 are background.

B1: TEV protease; numbered along this chain (parent)
chain: MGESLFKGPRDYNPISSSICHLTNESDGHTTSLYGIGFGPFIITNKHLFRRNNGTLVVQSLHGVFKVKDTTTLQQHLVDGRDMIIIRMPKDFPPFPQKLKFREPQREERICLVTTNFQTKSMSSMVSDTSCTFPSGDGIFWKHWIQTKDGQCGSPLVSTRDGFIVGIHSASNFTNTNNYFTSVPKNFMELLTNQEAQQWVSGWRLNADSVLWGGHKVFMVKPEEPFQPVKEATQL

Variants of: B1
Assay: raw area under fraction-flipped curve 0-4 h after induction (AUC4h, not background-subtracted), DNA-recorder readout of cleavage of the substrate (dimensionless); higher = more cleavage of the substrate by the protease variant
Conditions: temperature: 34 °C; time window: 0-4 h after rhamnose induction
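Further: Bxb1 expression induced with 0.2% (w/v) L-rhamnose at OD600 near 0.5, cultures sampled hourly, flipped fraction per protease–substrate barcode pair counted by paired-end Illumina sequencing.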

Row | Variant | area with substrate ENLYFQC | area with substrate ENLYFQD | area with substrate ENLYFQF | area with substrate ENLYFQH | area with substrate ENLYFQI | area with substrate ENLYFQK | area with substrate ENLYFQM | area with substrate ENLYFQN | area with substrate ENLYFQP | area with substrate ENLYFQQ | area with substrate ENLYFQS | area with substrate ENLYFQV | area with substrate ENLYFQY | area with substrate ENLYFQG | area with substrate ENLYFQT | area with substrate ENLYFQW | area with substrate ENLYFQE | area with substrate ENLYFQL | area with substrate ENLYFQR
1 | K221G | 0.101 | 0.0139 | 0.0554 | 0.0488 | 0.0506 | 0.0676 | 0.0543 | 0.0737 | 0.0354 | 0.0591 | 0.0949 | 0.0608 | 0.0411 |  |  |  |  |  | 
2 | K221W | 0.0917 | 0.0427 | 0.0708 |  |  | 0.0626 |  | 0.0755 |  |  | 0.0843 |  | 0.0571 | 0.0645 | 0.057 | 0.0644 |  |  | 
3 | K230Q | 0.112 | 0.0563 | 0.0863 | 0.0811 | 0.0584 | 0.0612 | 0.0833 | 0.0693 |  | 0.0672 | 0.0972 | 0.0589 | 0.0852 |  | 0.0584 | 0.0671 | 0.0793 |  | 
4 | K230Y | 0.112 | 0.0697 |  | 0.0511 | 0.0423 | 0.0645 | 0.0875 |  | 0.0569 | 0.0652 | 0.0926 | 0.0605 |  | 0.0929 | 0.0717 | 0.074 | 0.0813 | 0.0507 | 
5 | F226T | 0.141 |  | 0.0824 | 0.0744 |  | 0.079 | 0.109 | 0.0857 |  |  | 0.115 |  |  | 0.0993 | 0.0653 | 0.0369 |  | 0.0594 | 
6 | P225N | 0.106 | 0.0585 |  |  |  |  |  | 0.083 | 0.114 | 0.0807 | 0.105 | 0.0957 | 0.0754 | 0.113 |  | 0.07 |  | 0.0617 | 0.0609
7 | L211Y | 0.112 |  |  | 0.0727 | 0.0462 | 0.0658 |  | 0.073 | 0.0533 |  | 0.105 | 0.0594 | 0.0764 | 0.123 | 0.0736 | 0.0797 |  | 0.0699 | 0.0552
8 | L211W | 0.103 |  | 0.0597 | 0.098 |  |  |  | 0.0935 | 0.0588 | 0.0459 | 0.102 | 0.0615 | 0.0855 |  | 0.0606 |  |  |  | 0.0592
9 | N206Y | 0.0851 |  |  | 0.0732 |  | 0.052 | 0.0609 | 0.0786 |  | 0.0723 | 0.0777 | 0.0522 |  |  | 0.0522 | 0.0631 |  | 0.0641 | 0.0526
10 | M219N | 0.0803 |  |  |  | 0.0602 |  |  | 0.0634 |  | 0.0533 | 0.0975 | 0.0785 |  |  |  | 0.0512 | 0.0596 |  | 0.0785
11 | H215P | 0.0775 | 0.0691 |  |  | 0.0531 |  | 0.0376 | 0.0488 | 0.0663 |  | 0.0612 |  | 0.0503 | 0.0521 | 0.0783 | 0.0464 | 0.0665 | 0.0519 | 0.0524
12 | Q197M | 0.154 |  |  | 0.0557 | 0.0558 |  | 0.093 |  |  |  | 0.109 | 0.0636 |  |  | 0.0664 |  | 0.0748 |  | 
13 | F180M | 0.112 |  |  | 0.0809 |  |  | 0.0712 | 0.0502 |  | 0.0264 | 0.0995 |  | 0.0043 | 0.118 |  |  |  |  | 
14 | E223S | 0.112 |  | 0.0465 | 0.0891 | 0.0649 | 0.0556 | 0.0931 | 0.0832 | 0.0911 |  | 0.0961 | 0.0618 | 0.0582 | 0.077 | 0.063 | 0.0615 |  | 0.0606 | 0.0714
15 | G214R | 0.0791 | 0.0724 | 0.0626 | 0.0612 | 0.0751 | 0.0601 | 0.0661 |  |  |  | 0.0778 |  | 0.058 | 0.0952 | 0.0604 | 0.0529 | 0.0648 | 0.0538 | 0.0735
16 | N186G | 0.109 |  |  |  | 0.0615 |  |  |  |  |  | 0.108 |  |  |  |  |  |  |  | 
17 | A207W | 0.0888 |  | 0.0645 | 0.0686 | 0.0825 | 0.0618 | 0.0953 | 0.0591 | 0.0647 |  | 0.0975 | 0.0626 | 0.0775 | 0.0849 |  | 0.0873 |  | 0.0546 | 
18 | L190A | 0.11 |  |  | 0.0657 |  | 0.0691 | 0.0907 |  | 0.0704 | 0.0499 | 0.0896 |  | 0.0739 | 0.0943 |  | 0.0636 |  | 0.0502 | 0.0705
19 | W203M | 0.0706 |  |  | 0.053 |  | 0.0621 | 0.0606 |  |  |  | 0.0707 |  |  | 0.0649 |  |  |  | 0.0497 | 0.0657
20 | P228M | 0.107 | 0.0706 | 0.0757 |  | 0.0049 |  | 0.0706 | 0.0863 |  |  | 0.0996 | 0.0658 |  |  |  | 0.0732 | 0.0593 | 0.062 | 0.0531
21 | P228K | 0.125 | 0.101 | 0.108 |  |  | 0.0543 | 0.0813 | 0.0739 |  |  | 0.107 | 0.0676 |  |  | 0.0619 | 0.0823 |  | 0.0461 | 
22 | V229A | 0.137 |  |  | 0.0804 |  | 0.0506 | 0.0917 | 0.0558 |  | 0.0485 | 0.0991 |  | 0.0755 |  |  | 0.07 | 0.0535 | 0.0527 | 0.0126
23 | W212C | 0.127 |  |  | 0.082 | 0.0554 | 0.0462 |  | 0.0667 | 0.0658 |  | 0.111 |  |  | 0.096 | 0.0571 | 0.0081 |  | 0.0603 | 
24 | W212R | 0.0709 | 0.0667 | 0.0685 |  |  | 0.0615 | 0.0529 | 0.0576 | 0.0618 |  | 0.0608 |  |  |  | 0.0533 | 0.0563 | 0.0594 |  | 0.07
25 | F218M | 0.0933 |  |  | 0.0687 |  | 0.0327 | 0.0775 |  |  | 0.0365 | 0.104 |  |  | 0.102 | 0.0511 | 0.0737 |  | 0.0593 | 0.0596
26 | L191S | 0.0456 |  |  |  | 0.0546 |  |  | 0.0615 | 0.0568 | 0.0497 | 0.0569 | 0.0508 | 0.0628 |  | 0.0643 |  | 0.0459 |  | 0.0534
27 | V217K | 0.0483 |  |  |  |  | 0.0792 | 0.06 |  |  |  | 0.061 |  | 0.0666 |  | 0.0705 | 0.0397 |  |  | 0.0577
28 | V217I | 0.128 |  |  | 0.149 | 0.0586 | 0.0777 | 0.0833 | 0.0887 | 0.059 |  | 0.103 | 0.0586 | 0.0822 | 0.106 |  | 0.0629 |  | 0.0651 | 0.0516
29 | S182I | 0.11 | 0.0643 |  |  |  | 0.0628 | 0.0668 | 0.0598 |  | 0.0505 | 0.0885 |  |  | 0.0679 | 0.0493 | 0.0591 |  |  | 
30 | Q227C | 0.107 | 0.0772 |  | 0.0761 |  |  | 0.0648 | 0.0768 | 0.0693 | 0.0727 | 0.103 | 0.0617 |  | 0.0537 | 0.0669 |  |  | 0.049 | 0.0659
